In PubChem BioAssay (NCI):
Where “and” joins values, the source holds several entries; their conditions need not be identical. Identical values can stand only once.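 Interpolation was linear, between the two tested concentrations surrounding the appropriate level; five concentrations were tested over 48 hours in 96-well plates. GI50 marks 50% less growth. TGI: total growth inhibition.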 Peptide text beside a SMILES is read from it.

Test system: NCI-H322M lung
Experiment: NCI tumour cell line growth inhibition, 48 h

Row | SMILES | GI50 | TGI
1 | COc1ccc(/C=C(\C(=O)NCc2cccnc2)S(=O)(=O)c2ccccc2)cc1OC | 2.99 µM | 12 µM
2 | COC(=O)[C@H](Cc1ccc(O)cc1)NC(=O)[C@H](Cc1ccc(O)cc1)NC(=O)OC(C)(C)C (HELM PEPTIDE1{[CC(C)(C)OC(=O)[*:2]].Y.Y.[CO[*:1]]}$$$$V2.0) | – | > 100 µM
3 | C[C@]12CC[C@@H]3c4ccc(O)cc4CC[C@H]3[C@@H]1Cc1cnc(N)nc12 | 17.7 µM | 41.1 µM
4 | CNC(=O)OCc1c2ccncc2c(C)c2c1[nH]c1ccc(OC)cc12 | – | 2.79 µM
5 | Nc1nc(-c2ccco2)cc(-c2ccc(CO)o2)n1 | – | > 100 µM
6 | C=C1c2ccoc2C[C@H]2[C@H]1CC[C@@]1(O)[C@@](C)(C(=O)OC)CCC[C@]21C | 84.3 µM | > 100 µM
7 | COc1cc2c(c(OC)c1OC)-c1ccc(SC)cc1C(O)CC2 (configuration not stated) | – | > 100 µM
8 | O=[N+]([O-])c1cc(Cl)cnc1Br | – | 25.2 µM
9 | COc1ccc(N(/C=C/C(=O)C(F)(F)F)CC(=O)c2ccc(F)cc2)cc1 | 26.5 µM | 73 µM
10 | Cc1nn(-c2ccc([N+](=O)[O-])cc2)c2ncnc(N/N=C/c3ccccc3O)c12 | 0.23 µM | > 100 µM
11 | COc1ccc(C(=O)/C=C/c2cccc(Nc3ccnc4cc(Cl)ccc34)c2)cc1 | 2.69 µM | > 100 µM
12 | CC(C)NC(=O)OCc1c2c(n(C)c1COC(=O)NC(C)C)-c1ccccc1CC2 | – | 32.6 µM
13 | CCCCCCCCC/C=C1\CCC(CN(C)C)C1=O (configuration not stated) | – | 13 µM
14 | Cc1ccc(-c2nc3nc(-c4ccccc4)nc(N4CCNCC4)c3o2)cc1 | 0.807 µM | 2.12 µM
15 | Cc1cnc2sn(-c3ccc(Br)cc3)c(=O)c2c1 | – | > 100 µM
16 | O=C1c2ccc3c4c(ccc(c24)C(=O)N1CCCNCc1ccccc1Cl)C(=O)N(CCCNCc1ccccc1Cl)C3=O | 0.217 µM | 0.772 µM
17 | COc1ccc(CC2(Cc3ccc(OC)cc3)CCOC2=O)cc1 | – | > 100 µM
18 | CC(=O)Nc1cccc(N=NN(C)C)c1 | – | > 100 µM
19 | C=C1C[C@H](O)[C@H](Br)C(C)(C)C12CCC(C)(Cl)C(Br)C2 (some centres not stated) | – | 5.36 µM
20 | ClCCCCCc1c2nc(c(CCCCCCl)c3ccc([nH]3)c(CCCCCCl)c3ccc([nH]3)c(CCCCCCl)c3nc1C=C3)C=C2 | – | > 100 µM
21 | CN(C)c1ccc(C(=NO)c2ccc(N(C)C)cc2)cc1 | 6.07 µM | > 100 µM
22 | CC(C)N(C(C)C)S(=O)(=O)C[C@]12CC[C@H](CC13OCC(CS(=O)(=O)c1ccccc1)O3)C2(C)C (some centres not stated) | – | > 100 µM
23 | COc1cc([N+](=O)[O-])c(OC)cc1-c1nc2sccn2c1/C=N/N=C(N)N | 14.6 µM | 43.3 µM
24 | CCCN(CCC)C(=O)C(=O)c1c(N)[nH]n(-c2ccccc2)c1=O | – | > 100 µM
25 | CNc1nc(C(N)=O)c(N)s1 | – | > 100 µM

Row | SMILES | GI50 | TGI
26 | COc1cc2c(cc1OC)[C@@H](Nc1ccc(F)cc1)C1COC(=O)[C@@H]1C2c1cc(OC)c(O)c(OC)c1 (some centres not stated) | – | > 100 µM
27 | CC(=O)[O][Sn]([CH2]c1ccccc1)([CH2]c1ccccc1)[CH2]c1ccccc1 | > 5.37 µM | > 6.64 µM
28 | c1ccc2[nH]c(-c3cc(-c4ccc5c(c4)OCO5)n[nH]3)nc2c1 | 6.29 µM | 22.6 µM
29 | Cc1ccc(N/C(SCc2ccccc2)=C(\C(Cl)=C(Cl)Cl)[N+](=O)[O-])c(C)c1 | – | > 100 µM
30 | O=c1oc2cc(O)ccc2c(O)c1Cc1c(O)c2ccc(O)cc2oc1=O | – | > 100 µM
31 | C#CCNCCN1C(=O)c2ccc3c4c(ccc(c24)C1=O)C(=O)N(CCNCC#C)C3=O | 2.58 µM | 20.4 µM
32 | CCC1NC(N=Nc2ccc([N+](=O)[O-])cc2)(P(=O)(OC(C)C)OC(C)C)OC1=O (configuration not stated) | – | > 100 µM
33 | Cc1nc2sccn2c1/C=C1/C(=O)Nc2cccc(Cl)c21 | – | > 100 µM
34 | Fc1ccc(C(OCCN2CC3CCC(C2)N3CCCc2ccccc2)c2ccc(F)cc2)cc1 | – | 22 µM
35 | NCCN.O=C([O-])CN1CCOCC1.[OH-].[Pt+4] | > 100 µM | > 100 µM
36 | CCN1C(=O)N(CC)C2C1NN=c1s/c(=C\c3ccccn3)c(=O)n12 (configuration not stated) | 4.58 µM | > 100 µM
37 | CC1C(C#N)(C#N)C(C#N)=C(N)C1(Cl)[N+](=O)[O-] (configuration not stated) | – | 29.3 µM
38 | COc1cc(/C=C/C(=O)c2ccc(F)cc2)ccc1OCCCN1CCN(CC(=O)Nc2ccc(Cl)cc2C(=O)c2ccccc2Cl)CC1 | 27.7 µM | > 100 µM
39 | Cc1ccc(C(=O)NC2CCC2)cc1-c1ccc(C(=O)NCC2CC2)cc1 | > 25 µM | > 25 µM
40 | CCOC(=O)NN(C(=O)OCC)c1c(C)cc(C)cc1C | – | > 100 µM
41 | N#CSCc1ccc(Cl)c(CSC#N)c1 | > 39.1 µM | > 75.1 µM
42 | c1ccc2c(c1)OC(N1CCCC1)c1cnc(N3CCOCC3)nc1-2 (configuration not stated) | – | > 100 µM
43 | Cc1cnc2[nH]c(-c3ccc4ccccc4c3)cc(=O)c2c1 | – | > 100 µM
44 | CC1(C)N=C(C2CCCN2C(=O)OCc2ccccc2)OC1=O (configuration not stated) | – | > 100 µM
45 | O=C1c2ccccc2N2Oc3ccccc3C12c1ccccc1 (configuration not stated) | – | > 100 µM
46 | Cn1cc(-c2csc(-c3cn(C)c4ccccc34)n2)c2ccccc21 | – | > 100 µM
47 | CN(C)C(=O)c1cnc2oc3ccc(O)cc3c2c1-c1ccccc1 | > 25 µM | > 25 µM
48 | CC(Cl)CC(=O)OCC1CCCN2CCCCC12 (configuration not stated) | – | > 100 µM
49 | O=C(OCCNC(=O)N1CC1)OCCNC(=O)N1CC1 | – | > 10 µM
50 | CCn1cnnc1-c1nsc2ccccc12 | – | > 100 µM

Row | SMILES | GI50 | TGI
51 | O=[N+]([O-])c1ccc(NNN=Nc2ccc(-c3nc4ccccc4s3)cc2)c([N+](=O)[O-])c1 | – | 69.2 µM
52 | c1ccc(CSC2(SCc3ccccc3)CCCCC2)cc1 | – | > 10 µM
53 | O=C(NNC(=O)c1csc(NC(=S)NC2CCCCC2)n1)c1ccccc1 | – | 41.3 µM
54 | O=C(N/N=C/c1cc(Br)cc(Br)c1[O-])c1ccccc1O.O=C(N/N=C/c1cc(Br)cc(Br)c1[O-])c1ccccc1O.[Co+2] | – | 16.7 µM
55 | CC1(C)[C@@H]2C[C@H]1c1cnc(-c3ccccn3)cc1C2CCCCC[C@@H]1c2cc(-c3ccccn3)ncc2[C@@H]2C[C@H]1C2(C)C (some centres not stated) | – | 96.8 µM
56 | C=C1CC[C@@H]2[C@](C)(COC(C)=O)[C@H](OC(C)=O)CC[C@@]2(C)[C@@H]1CC(Nc1ccc(S(=O)(=O)Nc2ccc(Cl)nn2)cc1)C1=CCOC1=O (some centres not stated) | 2.97 µM | 11.6 µM
57 | O=C(c1ccc(Cl)cc1)N(C(=S)OCCOc1ccccc1)c1ccccc1 | – | 59.4 µM
58 | CCc1ccc2c(c1)C(=O)c1c-2n(CCCN=[N+]=[N-])c(=O)c2cc(OC)c(OC)cc12 | > 100 µM | > 100 µM
59 | COC(=O)C1=C(C)NC(C)=C(C(=O)OCC(C)C)C1c1ccccc1[N+](=O)[O-] (configuration not stated) | 4.86 µM | 33.4 µM
60 | COc1ccc(C2=CC(c3ccc(OC)cc3Br)N3C=CSC3=N2)cc1 (configuration not stated) | 23.7 µM | 58.9 µM
61 | CN(C)C(=O)c1ccc([N+](=O)[O-])cc1 | – | > 100 µM
62 | NC(=O)NC12CC3CC(CC(F)(C3)C1)C2 | – | > 100 µM
63 | O=C1C(c2cnc3ccccc3n2)=C(O)c2ccccc21 | – | > 100 µM
64 | COC1=C(C)C(=O)c2c(cc3c(c2O)C(C)(CCC=C(C)C)C(C)O3)C1=O (configuration not stated) | – | 35.1 µM
65 | COc1ccc2nc3cccc([N+](=O)[O-])c3c(NCCCO)c2c1 | 0.0047 µM and 0.0229 µM | –
66 | CCO/C=N/C1=C(C#N)SC2=N/C(=C\c3ccccc3)C(=O)N21 | – | > 100 µM
67 | O=C(O)c1nc(-c2ccc(Cl)c(Cl)c2)nc2ccc(Cl)cc12 | – | > 100 µM
68 | COc1ccc(NC(=S)c2ccoc2C)cc1CC(=O)OC(C)C | – | > 100 µM
69 | CCOC(=O)/C=C(/C)Nc1nc2c(c(C(=O)OC)c1C#N)CCCC2 | – | > 100 µM
70 | COc1ccc(Cl)c(Nc2nc3ccccc3nc2NS(=O)(=O)c2cccc(NC(=O)C(C)(C)N)c2)c1 | 6.97 µM and 8.24 µM | 20.6 µM and > 10 µM
71 | CC1=C(CCC(C)NCc2ccc(OCCCN3CCCCC3)cc2)C(C)(C)CCC1 (configuration not stated) | 1.99 µM | 4.63 µM
72 | CCN1CN(c2ccccc2)C2(CCN(CC(CC3OCCO3)c3ccc(F)cc3)CC2)C1=O (configuration not stated) | – | > 56.7 µM
73 | O=c1c(O)c(-c2ccc(O)c(O)c2)oc2cc(O)cc(O)c12 | 13.2 µM | > 100 µM
74 | CCOC1CC(C)N(C(=O)c2ccccc2)O1 (configuration not stated) | – | > 100 µM
75 | C[C@]12CCC(=O)CC1CCCC2=O (some centres not stated) | – | > 100 µM

Row | SMILES | GI50 | TGI
76 | O=C(Nc1ccc(Oc2cccc(F)c2)c(Cl)c1)c1cnccn1 | 2.59 µM | > 50 µM
77 | CSc1nc2c(c(=O)[nH]1)N=C(c1ccccc1)CC(c1ccccc1)N2 (configuration not stated) | – | > 100 µM
78 | COc1cc(C2c3cc4c(cc3[C@@H](NCCN3CCOCC3)C3COC(=O)[C@H]23)OCO4)cc(OC)c1O (some centres not stated) | – | 31.7 µM and > 17.5 µM
79 | CN(C)Cc1cc(N=Nc2ccc(Cl)cc2)cc(CN(C)C)c1O | – | 27.9 µM
80 | O=C(c1cc2c(c3ccccc13)NC1(CCCCC1)N=C2C(F)(F)F)C(F)(F)F | – | 23.8 µM
81 | O=CN1CCN(C(=O)c2ccc(Cl)c(Cl)c2)C1=S | – | 31.3 µM
82 | O=C1CC(NCc2ccccc2)c2c(Cl)sc(Cl)c21 (configuration not stated) | – | > 100 µM
83 | CCOC(=O)c1c(NC(=S)Nc2ccccc2)sc2c1CCOC2 | – | > 100 µM
84 | COc1cc(OC)c2[nH]c3c(O)c(-c4c(C)cc5c([nH]c6c(OC)cc(OC)cc65)c4O)c(C)cc3c2c1 | – | 16.4 µM
85 | CCOC(=O)C(Cl)(NC(=O)OCc1ccccc1)C(F)(F)F (configuration not stated) | – | > 100 µM
86 | CCN(CC)c1oc(N(CC)CC)c(C(=O)Nc2ccccn2)c(=O)c1C(C)=O | – | > 100 µM
87 | NC(=O)Nc1cc(-c2cccc(F)c2)sc1C(=O)N[C@H]1CCCNC1 | 0.0886 µM and 0.225 µM | 1.87 µM and 1.33 µM
88 | COc1cccc(C2c3cc4c(cc3OC(Nc3ccccc3)C2C)OCO4)c1OC (configuration not stated) | – | > 100 µM
89 | CN(C)c1ccc(C=C2C(=O)NC(=S)NC2=O)c2ccccc12 | – | > 100 µM
90 | O=C(N/N=C/c1ccccc1)c1cccc2nc3ccccc3nc12 | – | > 28.6 µM
91 | CCOC(=O)c1cccc(NC(=O)CI)c1 | – | 9.97 µM
92 | Cc1[nH]c(=O)nc(Nc2ccc(Cl)cc2)c1C(=O)N1CCN(CCO)CC1 | > 100 µM | > 100 µM
93 | CC1=C(C(=O)N(C)c2ccc(Cl)c(C(=O)OC(C)C)c2)SCCO1 | – | > 100 µM
94 | COC(=O)Nc1nc2ccc(Oc3cccc(NC(=O)Nc4cc(C(F)(F)F)ccc4F)c3)cc2[nH]1 | 14.5 µM | > 25 µM
95 | CC[C@H](CO)Nc1nc(NCc2ccccc2)c2ncn(C(C)C)c2n1 | – | > 100 µM
96 | CC(C)Oc1c(-c2ccc(F)cc2)c(O)c2c3c1oc(=O)n3C=CC2C (configuration not stated) | – | 26.3 µM
97 | COc1ccc(C2=C(c3ccc(OC)c(OC)c3)C(=O)N3CCCC3C2)cc1 (configuration not stated) | 42.1 µM | > 100 µM
98 | Nc1ccccc1C#C/C=C\C#Cc1cccc(O)c1 | 7.85 µM | 45.3 µM
99 | O=[N+]([O-])c1ccc(N=Nc2ccc(O)c3ccccc23)cc1 | 9.85 µM | > 100 µM
